T1: RBFOX1 RRM (Homo sapiens, UniProt Q9NWB1 109-208)
T1 sequence: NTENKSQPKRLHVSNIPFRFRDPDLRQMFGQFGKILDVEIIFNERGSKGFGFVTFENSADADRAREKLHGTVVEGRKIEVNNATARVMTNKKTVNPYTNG

B1: CGUUAUC (DNA:RNA)
RNA: GGGAGACCGGAAUUCAGAUUGUCCCGUUAUCUUAAAUCCCGUCGUAGCCACCA
DNA 1: CAATCTGAATTCCGGTCTCCC
DNA 2: TGGTGGCTACGACGGGATT
B2: UGGAACA (DNA:RNA)
RNA: B1 RNA with C25U, U27G, U28A, U30C, C31A
DNA 1: CAATCTGAATTCCGGTCTCCC
DNA 2: TGGTGGCTACGACGGGATT
B3: UACAAUC (DNA:RNA)
RNA: B1 RNA with C25U, G26A, U27C, U28A
DNA 1: CAATCTGAATTCCGGTCTCCC
DNA 2: TGGTGGCTACGACGGGATT
B4: GUACACU (DNA:RNA)
RNA: B1 RNA with C25G, G26U, U27A, U28C, U30C, C31U
DNA 1: CAATCTGAATTCCGGTCTCCC
DNA 2: TGGTGGCTACGACGGGATT
B5: CCCGUCU (DNA:RNA)
RNA: B1 RNA with G26C, U27C, U28G, A29U, U30C, C31U
DNA 1: CAATCTGAATTCCGGTCTCCC
DNA 2: TGGTGGCTACGACGGGATT
B6: CUUAAGC (DNA:RNA)
RNA: B1 RNA with G26U, U28A, U30G
DNA 1: CAATCTGAATTCCGGTCTCCC
DNA 2: TGGTGGCTACGACGGGATT
B7: GAGGCUC (DNA:RNA)
RNA: B1 RNA with C25G, G26A, U27G, U28G, A29C
DNA 1: CAATCTGAATTCCGGTCTCCC
DNA 2: TGGTGGCTACGACGGGATT
B8: GUCAUAG (DNA:RNA)
RNA: GGGAGACCGGAAUUCAGAUUGUCCGUCAUAGUUAAAUCCCGUCGUAGCCACCA
DNA 1: CAATCTGAATTCCGGTCTCCC
DNA 2: TGGTGGCTACGACGGGATT
B9: GAAAUAU (DNA:RNA)
RNA: B8 RNA with U26A, C27A, G31U
DNA 1: CAATCTGAATTCCGGTCTCCC
DNA 2: TGGTGGCTACGACGGGATT
B10: GCAAAGU (DNA:RNA)
RNA: B8 RNA with U26C, C27A, U29A, A30G, G31U
DNA 1: CAATCTGAATTCCGGTCTCCC
DNA 2: TGGTGGCTACGACGGGATT
B11: AUUAGUG (DNA:RNA)
RNA: B8 RNA with G25A, C27U, U29G, A30U
DNA 1: CAATCTGAATTCCGGTCTCCC
DNA 2: TGGTGGCTACGACGGGATT
B12: CAGCUCA (DNA:RNA)
RNA: B1 RNA with G26A, U27G, U28C, A29U, U30C, C31A
DNA 1: CAATCTGAATTCCGGTCTCCC
DNA 2: TGGTGGCTACGACGGGATT
B13: UAGUCCU (DNA:RNA)
RNA: B1 RNA with C25U, G26A, U27G, A29C, U30C, C31U
DNA 1: CAATCTGAATTCCGGTCTCCC
DNA 2: TGGTGGCTACGACGGGATT
B14: GACGGCC (DNA:RNA)
RNA: B8 RNA with U26A, A28G, U29G, A30C, G31C
DNA 1: CAATCTGAATTCCGGTCTCCC
DNA 2: TGGTGGCTACGACGGGATT
B15: CACUCGU (DNA:RNA)
RNA: B1 RNA with G26A, U27C, A29C, U30G, C31U
DNA 1: CAATCTGAATTCCGGTCTCCC
DNA 2: TGGTGGCTACGACGGGATT
B16: UCCAGAU (DNA:RNA)
RNA: B8 RNA with G25U, U26C, U29G, G31U
DNA 1: CAATCTGAATTCCGGTCTCCC
DNA 2: TGGTGGCTACGACGGGATT
B17: UAACGGA (DNA:RNA)
RNA: GGGAGACCGGAAUUCAGAUUGUCCUAACGGAUUAAAUCCCGUCGUAGCCACCA
DNA 1: CAATCTGAATTCCGGTCTCCC
DNA 2: TGGTGGCTACGACGGGATT
B18: CAACAGC (DNA:RNA)
RNA: B17 RNA with U25C, G29A, A31C
DNA 1: CAATCTGAATTCCGGTCTCCC
DNA 2: TGGTGGCTACGACGGGATT
B19: CAACGCG (DNA:RNA)
RNA: B17 RNA with U25C, G30C, A31G
DNA 1: CAATCTGAATTCCGGTCTCCC
DNA 2: TGGTGGCTACGACGGGATT
B20: UGGGUGG (DNA:RNA)
RNA: B8 RNA with G25U, U26G, C27G, A28G, A30G
DNA 1: CAATCTGAATTCCGGTCTCCC
DNA 2: TGGTGGCTACGACGGGATT

Numbering of substitutions follows the chain as printed; changes in the protein carry UniProt numbers. This is one part of the list.

This assay addresses T1, RBFOX1 RRM. Kind of assay: EMSA; HiTS-Eq, 1 nM pool, 10 min; buffer printed only for the single-RNA assays: 10 mM Tris pH 7.5, 150 mM NaCl, 3.4 mM EDTA, 0.001% NP-40, 30 C. Particulars: tags: His6 N-terminal (pET28a); label: 5' 32P. The method in brief:
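Purified RbFox RRM, wild type or mutant, was incubated for 10 min in 50 µL with 1 nM of a 5′-radiolabelled RNA pool carrying 7 randomized nucleotides, whose flanks were annealed to DNA oligonucleotides, over a series of increasing protein concentrations. Unbound RNA was resolved on 8% native PAGE, cut out, reverse-transcribed, barcoded by PCR and sequenced on an Illumina HiSeq 2500. Relative association constants were derived from changes in read counts for each RNA species versus the control reaction and normalised to the cognate motif.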
With B1, the binding signal was 0.00879 KA relative to UGCAUGU.

B2: the binding signal was 0.0147 KA relative to UGCAUGU. Regarding B3, the binding signal was 0.00223 KA relative to UGCAUGU. In the case of B4, the binding signal is 0.00245 KA relative to UGCAUGU. For the molecule B5, the binding signal is 0.00831 KA relative to UGCAUGU. Take B6: the binding signal was 0.00949 KA relative to UGCAUGU. In the case of B7, the binding signal is 0.0238 KA relative to UGCAUGU.

For B8, the binding signal was 0.0112 KA relative to UGCAUGU. Regarding B9, the binding signal is 0.0014 KA relative to UGCAUGU. As for B10, the binding signal was 0.00637 KA relative to UGCAUGU. Consider B11, for which the binding signal was 0.0135 KA relative to UGCAUGU. The same measure for B12: 0.00282 KA relative to UGCAUGU. In the case of B13 it was 0.00776 KA relative to UGCAUGU; in that of B14, 0.0213 KA relative to UGCAUGU. The same measure for B15: 0.00448 KA relative to UGCAUGU.

As for B16, the binding signal is 0.00713 KA relative to UGCAUGU. On to B17, for which the binding signal is 0.000926 KA relative to UGCAUGU. B18: the binding signal is 0.00195 KA relative to UGCAUGU.

Regarding B19, the binding signal was 0.00329 KA relative to UGCAUGU. In the case of B20 it was 0.0279 KA relative to UGCAUGU.

Source of the values: publication PMC9911399, “Two distinct binding modes provide the RNA-binding protein RbFox with extraordinary sequence specificity”.
